In IntAct's records for PubMed 34361094:

B1: G-protein coupled receptor 143 (Homo sapiens), P51810 (parent)
chain: MASPRLGTFCCPTRDAATQLVLSFQPRAFHALCLGSGGLRLALGLLQLLPGRRPAGPGSPATSPPASVRILRAAAACDLLGCLGMVIRSTVWLGFPNFVDSVSDMNHTEIWPAAFCVGSAMWIQLLYSACFWWLFCYAVDAYLVIRRSAGLSTILLYHIMAWGLATLLCVEGAAMLYYPSVSRCERGLDHAIPHYVTMYLPLLLVLVANPILFQKTVTAVASLLKGRQGIYTENERRMGAVIKIRFFKIMLVLIICWLSNIINESLLFYLEMQTDINGGSLKPVRTAAKTTWFIMGILNPAQGFLLSLAFYGWTGCSLGFQSPRKEIQWESLTTSAAEGAHPSPLMPHENPASGKVSQVGGQTSDEALSMLSEGSDASTIEIHTASESCNKNEGDPALPTHGDL

What was measured:
[1] = variants of: B1; settings: with drd3_human DRD3, P35462
[2] = variants of: B1; settings: with drd2_human DRD2, P14416
[3] = variants of: B1; settings: with drd2_human DRD2, P14416; remark: listed apart in the source

Variant	effect of a mutation on the interaction [1]	effect of a mutation on the interaction [2]	effect of a mutation on the interaction [3]
W329A;E330A	with no effect	with no effect	
L223A;L224A	with no effect	with no effect	with no effect
